Measured values taken from publication PMC9911399, “Two distinct binding modes provide the RNA-binding protein RbFox with extraordinary sequence specificity”.
Numbering of substitutions follows the chain as printed; changes in the protein carry UniProt numbers. Some of the results follow.

T1: RBFOX1 RRM (Homo sapiens, UniProt Q9NWB1 109-208)
T1 sequence: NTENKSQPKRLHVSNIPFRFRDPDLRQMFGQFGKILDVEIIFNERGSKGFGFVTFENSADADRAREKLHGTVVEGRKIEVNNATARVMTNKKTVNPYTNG

B1: UCGUUCA (DNA:RNA)
RNA: GGGAGACCGGAAUUCAGAUUGUCCUCGUUCAUUAAAUCCCGUCGUAGCCACCA
DNA 1: CAATCTGAATTCCGGTCTCCC
DNA 2: TGGTGGCTACGACGGGATT
B2: CAGCAGC (DNA:RNA)
RNA: B1 RNA with U25C, C26A, U28C, U29A, C30G, A31C
DNA 1: CAATCTGAATTCCGGTCTCCC
DNA 2: TGGTGGCTACGACGGGATT
B3: GUAUUUG (DNA:RNA)
RNA: B1 RNA with U25G, C26U, G27A, C30U, A31G
DNA 1: CAATCTGAATTCCGGTCTCCC
DNA 2: TGGTGGCTACGACGGGATT
B4: UGGACGA (DNA:RNA)
RNA: B1 RNA with C26G, U28A, U29C, C30G
DNA 1: CAATCTGAATTCCGGTCTCCC
DNA 2: TGGTGGCTACGACGGGATT
B5: GAUGCCU (DNA:RNA)
RNA: B1 RNA with U25G, C26A, G27U, U28G, U29C, A31U
DNA 1: CAATCTGAATTCCGGTCTCCC
DNA 2: TGGTGGCTACGACGGGATT
B6: CCCCUUA (DNA:RNA)
RNA: B1 RNA with U25C, G27C, U28C, C30U
DNA 1: CAATCTGAATTCCGGTCTCCC
DNA 2: TGGTGGCTACGACGGGATT
B7: AGGCCCG (DNA:RNA)
RNA: B1 RNA with U25A, C26G, U28C, U29C, A31G
DNA 1: CAATCTGAATTCCGGTCTCCC
DNA 2: TGGTGGCTACGACGGGATT
B8: AAUCUUA (DNA:RNA)
RNA: B1 RNA with U25A, C26A, G27U, U28C, C30U
DNA 1: CAATCTGAATTCCGGTCTCCC
DNA 2: TGGTGGCTACGACGGGATT
B9: UAAGGUU (DNA:RNA)
RNA: B1 RNA with C26A, G27A, U28G, U29G, C30U, A31U
DNA 1: CAATCTGAATTCCGGTCTCCC
DNA 2: TGGTGGCTACGACGGGATT

Target: T1, RBFOX1 RRM
Test: EMSA; HiTS-Eq, 1 nM pool, 10 min; buffer printed only for the single-RNA assays: 10 mM Tris pH 7.5, 150 mM NaCl, 3.4 mM EDTA, 0.001% NP-40, 30 C
Conditions: tags: His6 N-terminal (pET28a); label: 5' 32P
In short: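 Purified RbFox RRM, wild type or mutant, was incubated for 10 min in 50 µL with 1 nM of a 5′-radiolabelled RNA pool carrying 7 randomized nucleotides, whose flanks were annealed to DNA oligonucleotides, over a series of increasing protein concentrations. Unbound RNA was resolved on 8% native PAGE, cut out, reverse-transcribed, barcoded by PCR and sequenced on an Illumina HiSeq 2500. Relative association constants were derived from changes in read counts for each RNA species versus the control reaction and normalised to the cognate motif.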

Binder	binding signal
B1	0.0126 KA relative to UGCAUGU
B2	0.00706 KA relative to UGCAUGU
B3	0.0142 KA relative to UGCAUGU
B4	0.0212 KA relative to UGCAUGU
B5	0.0182 KA relative to UGCAUGU
B6	0.0049 KA relative to UGCAUGU
B7	0.0142 KA relative to UGCAUGU
B8	0.00267 KA relative to UGCAUGU
B9	0.0143 KA relative to UGCAUGU
